In article PMC6919601, “Identification of Plasmodium dipeptidyl aminopeptidase allosteric inhibitors by high throughput screening” (PLoS ONE, 2019):
Hit rate of the full screen: of about 110,000 compounds, about 230 (0.21%) showed an effect of 50% or more. This is one part of the list.

target: DPAP1 (Plasmodium falciparum, UniProt Q8IIJ9); assay: primary screen, percent inhibition; read by cleavage of a fluorogenic dipeptide substrate; higher = more effect of the substance; parameters: species or system P. falciparum D10 trophozoite lysates; single well
Sequence (Q8IIJ9 whole entry, looked up): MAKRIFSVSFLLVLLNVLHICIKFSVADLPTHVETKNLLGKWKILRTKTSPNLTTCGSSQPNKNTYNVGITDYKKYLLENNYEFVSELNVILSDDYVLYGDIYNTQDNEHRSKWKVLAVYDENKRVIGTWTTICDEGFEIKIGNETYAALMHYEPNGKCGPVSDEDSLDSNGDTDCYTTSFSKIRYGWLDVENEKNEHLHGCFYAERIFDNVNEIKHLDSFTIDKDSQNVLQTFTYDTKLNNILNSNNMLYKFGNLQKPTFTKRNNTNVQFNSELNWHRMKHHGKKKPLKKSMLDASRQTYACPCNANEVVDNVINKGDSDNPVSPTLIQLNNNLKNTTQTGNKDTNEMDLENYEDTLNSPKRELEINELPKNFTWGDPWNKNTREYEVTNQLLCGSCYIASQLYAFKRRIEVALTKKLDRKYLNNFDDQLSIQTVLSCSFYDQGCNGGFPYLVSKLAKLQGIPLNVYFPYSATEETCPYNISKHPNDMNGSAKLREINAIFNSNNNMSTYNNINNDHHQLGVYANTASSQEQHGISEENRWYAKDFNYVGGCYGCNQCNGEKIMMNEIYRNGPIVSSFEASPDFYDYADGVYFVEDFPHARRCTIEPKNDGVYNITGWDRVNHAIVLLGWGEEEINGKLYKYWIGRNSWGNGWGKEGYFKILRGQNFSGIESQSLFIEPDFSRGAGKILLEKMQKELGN
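Further: 30 min substrate incubation versus DMSO and 10 µM JCP410 controls.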

Structure (SMILES) | % Inhibition @ 10 uM [%]
CC(C)(C)c1ccc(OCC(=O)O)c(C(C)(C)C)c1 | -2.28
Cc1ccc(C2C(C#N)=C(N)Oc3c2ccc2cccnc32)cc1 (centres unmarked) | -0.693
COC(=O)c1cc2c(=O)n3ccccc3nc2n(Cc2ccco2)c1=N | 3.6
CCOC(=O)N1CCN(Cc2ccccc2F)CC1 | -2.34
COc1cccc(CNCc2cccnc2)c1OCc1ccccc1F | 0.755
CCOC(=O)N1CCN(C(=O)CSCc2nc(-c3ccccc3F)oc2C)CC1 | 2.16
CC(C)(C)C1CCc2c(sc(NC(=O)CCC(=O)O)c2C#N)C1 (centres unmarked) | 1.01
COc1ccc(CN2CCN(c3cccc(C)c3C)CC2)cc1Br | -5.68
C=CCN(CC=C)S(=O)(=O)c1ccc(F)cc1 | -1.05
CCN(C(=O)c1ccc(Br)o1)c1ccccc1 | 3.53
CC(C)=C1C2CCC1C1C(=O)N(c3nc(-c4ccc(Cl)cc4)c(C)s3)C(=O)C21 (centres unmarked) | 7.04
c1ccc(C2CCC(Nc3ccc4c[nH]nc4c3)CC2)cc1 (centres unmarked) | -2.34
CC1CCCCN1S(=O)(=O)c1ccc(NC(=O)COc2ccc(F)cc2)cc1 (centres unmarked) | 10.9
Cc1nc2cc(-c3ccccc3)nn2c(C)c1CC(=O)NC(C)c1cccs1 (centres unmarked) | -4.24
Cc1ccc(S(=O)(=O)Nc2nc3ccccc3nc2Nc2ccc(O)cc2)cc1 | 1.42
COC(=O)C1=CN(Cc2ccc(Cl)cc2)C=C(C(=O)OC)C1c1ccccc1Cl | 4.99
COC(=O)Nc1ccc2c(c1)N(C(=O)CCN1CCOCC1)c1ccccc1C=C2 | 2.55
COc1cccc(C2C(C#N)=C(N)Oc3c2c(=O)oc2ccccc32)c1OC (centres unmarked) | 0.0345
O=C(NCc1ccc(Cl)cc1)C(=O)NC1CCCC1 | 1.29
COc1ccc(-n2nnc(-c3nc(-c4ccccn4)no3)c2N)cc1 | 2.19
Cn1c(-c2cccs2)nc2cnccc21 | 0.962
CCOC(=O)c1sc2nc(C)ccc2c1N | 2.7
Nc1c(C(=O)Nc2ccccc2C(=O)O)sc2nc3c(cc12)CCC3 | -0.992
Oc1ccccc1-c1nc(N2CCN(c3ccccc3)CC2)c2ccccc2n1 | 8.06
CCc1ccc(/C=C(/C#N)c2nc(-c3ccc(C)cc3)cs2)cc1 | -4.52
COCCNC(=O)Nc1ccc2c(c1)nc(C)n2C | -2.74
Oc1ccc(-c2nc3ccccc3[nH]2)nn1 | 4.63
CCCCC(=O)Nc1c(-c2ccccc2)nc2ccccn12 | -3.19
O=S(=O)(O)c1ccc2[nH]c(-c3ccccc3)nc2c1 | -2.35
